B1: TPR 5TU (parent)
chain: GGAUCUUCUCGAUCUAACAAAAAAGACAAAUCUGCCACAAAGCUUGAGAGCAUCUUCGGAUGCAGAGGCGGCAGCCUUCGGUGGCGCGAUAGCGCCAACGUUCUCAACUAUGACACGCAAAACGCGUGCUCCGUUGAAUGGAGUUUAUCAUG

Variants at the floor of the assay are shown more often than the library holds them.

Variants of B1 are the subject of this data set. Kind of data set: polymerase ribozyme fitness, log enrichment relative to wild type (log ratio); higher = more active; in vitro selection for triplet polymerase activity. The essentials: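 One round of in vitro selection, in triplicate, was applied to PCR-built, transcribed mutant libraries of each subunit of a heterodimeric triplet polymerase ribozyme. The steps were annealing with a biotinylated primer, partner subunit and triplets, incubation frozen at −7 °C, gel excision of extended constructs, streptavidin-bead capture and RT-PCR. Fitness is the logarithm, base 2, of genotype enrichment over wild-type enrichment from inverse-variance-weighted replicate averages of Illumina-sequenced inputs and outputs, keeping genotypes with ≥10 input reads and ≥1 read per output.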
Turning to U13A U15C A26U C85G G141C, the “polymerase ribozyme fitness (log ratio)” value was at most -4.2.

With U13A C85U A107U C125A G126C, the “polymerase ribozyme fitness (log ratio)” value was at most -4.2.

Consider A12U G59A C75G U127G, for which the “polymerase ribozyme fitness (log ratio)” value is -4.12.

Consider A12U C27G A28C C54G A91U U101A U104G C116U, for which the “polymerase ribozyme fitness (log ratio)” value was at most -4.2.

Consider A12U U13G A40U C69U C85G U104G U146G, for which the “polymerase ribozyme fitness (log ratio)” value is at most -4.2.

On to A12U C54U G86C, for which the “polymerase ribozyme fitness (log ratio)” value is -3.04.

Take A12C A64G C85A G100C: the “polymerase ribozyme fitness (log ratio)” value is at most -4.2.

For the variant G11U C43A C76U C95U, the “polymerase ribozyme fitness (log ratio)” value was at most -4.2.

For A12U U44C G68U, the “polymerase ribozyme fitness (log ratio)” value is at most -4.2.

Regarding U13A A20U A28C C93U G136C A137U, the “polymerase ribozyme fitness (log ratio)” value is at most -4.2.

A12C U45A C76A A91U U102C C131G A137G: the “polymerase ribozyme fitness (log ratio)” value is at most -4.2.

For A12G G74U G83A C85G A138G, the “polymerase ribozyme fitness (log ratio)” value is at most -4.2.

A12C C32G C35G G62A G92U C105U C125U A142C: the “polymerase ribozyme fitness (log ratio)” value is at most -4.2.

As to U13A G25U C85G, the “polymerase ribozyme fitness (log ratio)” value is -3.79.

Take A12G A41U C54A G88U C96U U134C: the “polymerase ribozyme fitness (log ratio)” value was at most -4.2.

A12G A22G A39U A47U G92U A97G U101G: the “polymerase ribozyme fitness (log ratio)” value was at most -4.2.

As for A12U U44A C93U A119C, the “polymerase ribozyme fitness (log ratio)” value is at most -4.2.

For A12U A97U, the “polymerase ribozyme fitness (log ratio)” value is -0.954.

Regarding A12U G25C C35U G81A C85U, the “polymerase ribozyme fitness (log ratio)” value is at most -4.2.

Turning to A12C G68A U77C G124A, the “polymerase ribozyme fitness (log ratio)” value is at most -4.2.

Take A12C C57G C87A G124C C131U: the “polymerase ribozyme fitness (log ratio)” value was at most -4.2.

Consider A12U C116G, for which the “polymerase ribozyme fitness (log ratio)” value was -0.634.

A12U A21U C36U G42C C96G U104A: the “polymerase ribozyme fitness (log ratio)” value is at most -4.2.

In the case of A12G U151G, the “polymerase ribozyme fitness (log ratio)” value was -4.06.

As for G11U U13A C35U A49C C57U G92A A142U, the “polymerase ribozyme fitness (log ratio)” value is at most -4.2.

Regarding A12C A28C C87A U134G, the “polymerase ribozyme fitness (log ratio)” value is at most -4.2.

As to U13A A16U A22C C32A C87A G141U C149G, the “polymerase ribozyme fitness (log ratio)” value was at most -4.2.

With A12C A24U G92C C108G U127G U146G, the “polymerase ribozyme fitness (log ratio)” value was at most -4.2.

Turning to A12U C18A C36U C57A C95U A97G A98U C125U, the “polymerase ribozyme fitness (log ratio)” value is -3.95.

As for A12C G46A U53A C57A C75U C129A, the “polymerase ribozyme fitness (log ratio)” value is at most -4.2.

Regarding A12U A17G C35A U44A A47C A52U C95U G152U, the “polymerase ribozyme fitness (log ratio)” value was at most -4.2.

For U13C A40C G48C G50C G83U, the “polymerase ribozyme fitness (log ratio)” value was at most -4.2.

Regarding U13A U111G, the “polymerase ribozyme fitness (log ratio)” value is at most -4.2.

A12C A17U A24U A52C U53A C75U G83A C96A: the “polymerase ribozyme fitness (log ratio)” value is at most -4.2.

G11U G68U A120U C125U: the “polymerase ribozyme fitness (log ratio)” value was at most -4.2.

On to A12G A19C G86C U101G A113G G124C U135A G141A, for which the “polymerase ribozyme fitness (log ratio)” value was at most -4.2.

Take A12G C57U C87U C103G: the “polymerase ribozyme fitness (log ratio)” value is -2.19.

Take A12G U53C G68A C85A U101C: the “polymerase ribozyme fitness (log ratio)” value was at most -4.2.

With G11U C54U U77G G92U U145A A147U, the “polymerase ribozyme fitness (log ratio)” value is at most -4.2.

Consider U13A A17U A24C A60G G84U A106G A142G A147U, for which the “polymerase ribozyme fitness (log ratio)” value is at most -4.2.

For U13A G62A A142G, the “polymerase ribozyme fitness (log ratio)” value is -2.22.

With A12U C14G C38U A47U A52G C54A C57U C75A A91G, the “polymerase ribozyme fitness (log ratio)” value was at most -4.2.

For A12U G58A, the “polymerase ribozyme fitness (log ratio)” value was -0.217.

For the variant U13G A16U A52U C63U C103U, the “polymerase ribozyme fitness (log ratio)” value is at most -4.2.

As to A12C G86C A106U A115U U144A, the “polymerase ribozyme fitness (log ratio)” value is at most -4.2.

Take A12C A17C G88U C149G: the “polymerase ribozyme fitness (log ratio)” value was at most -4.2.

Turning to A12C C85U G128A C132U, the “polymerase ribozyme fitness (log ratio)” value is at most -4.2.

Consider A12U U15C A30C U31G G46C U77G A115C, for which the “polymerase ribozyme fitness (log ratio)” value was at most -4.2.

With U13C G83C C96U C114U, the “polymerase ribozyme fitness (log ratio)” value is -4.13.

A12C A26U U31C C38U G71A C125U G140U: the “polymerase ribozyme fitness (log ratio)” value is at most -4.2.

On to U13G A26C G42U U53A U78A A107U, for which the “polymerase ribozyme fitness (log ratio)” value was at most -4.2.

As for A12U C32G A49C G50A C75G C95U A122G C129A, the “polymerase ribozyme fitness (log ratio)” value was at most -4.2.

Consider A12G C57G G83U A115G, for which the “polymerase ribozyme fitness (log ratio)” value was -2.09.

As to A12C G81A G92C C99U G124C G133U, the “polymerase ribozyme fitness (log ratio)” value is at most -4.2.

Consider A12C C32U U56C C87A A89U A106U U130G, for which the “polymerase ribozyme fitness (log ratio)” value was at most -4.2.

A12U A39C U55A A107U A115G: the “polymerase ribozyme fitness (log ratio)” value was at most -4.2.

Regarding A12U C51U C57G C85U A91G U104G G136A, the “polymerase ribozyme fitness (log ratio)” value is at most -4.2.

As to A12U A17U A21G G42A G46C G88A C95U, the “polymerase ribozyme fitness (log ratio)” value was at most -4.2.

On to G11U G74U G83C G94C, for which the “polymerase ribozyme fitness (log ratio)” value is at most -4.2.

For the variant G11U A47G U53A, the “polymerase ribozyme fitness (log ratio)” value was -2.54.

For A12G A17G C93U A120G, the “polymerase ribozyme fitness (log ratio)” value was -0.897.

A12C A21U C75A G88U C96A U102G C105U A120G: the “polymerase ribozyme fitness (log ratio)” value was at most -4.2.

Turning to U13A C38U G83C G140A, the “polymerase ribozyme fitness (log ratio)” value is at most -4.2.

Turning to A12U A29G U53A C69G C85G G94A G143A C149U, the “polymerase ribozyme fitness (log ratio)” value is at most -4.2.

For A12G G25U G50U C76G C85A U127A, the “polymerase ribozyme fitness (log ratio)” value was at most -4.2.

On to A12U A20U C36A A119U, for which the “polymerase ribozyme fitness (log ratio)” value was at most -4.2.

As for A12C C87G G100C, the “polymerase ribozyme fitness (log ratio)” value was at most -4.2.

As for A12C U31G A37C G42A G92C C123G, the “polymerase ribozyme fitness (log ratio)” value is at most -4.2.

As for A12U A52G G94A G141C U148A, the “polymerase ribozyme fitness (log ratio)” value is at most -4.2.

U13A A21C A73G C85G A89U: the “polymerase ribozyme fitness (log ratio)” value was -2.11.

As for A12G A29U U44C G50C A91C C93G G94C C116U U144A, the “polymerase ribozyme fitness (log ratio)” value was at most -4.2.

With A12G A16U G50C G94A A119U G140U, the “polymerase ribozyme fitness (log ratio)” value was at most -4.2.

On to A12G U13C G46C C51A U56A U82C G86A C87U A97C G133C G143C U146C, for which the “polymerase ribozyme fitness (log ratio)” value is at most -4.2.

Consider U13C A37C U45G A49C G68A C79A, for which the “polymerase ribozyme fitness (log ratio)” value was at most -4.2.

Consider A12G A24U C87U, for which the “polymerase ribozyme fitness (log ratio)” value turned out to be 0.648.

As for A12C C32A G71C C76G U78C C108U U134A A137G A142C G143A, the “polymerase ribozyme fitness (log ratio)” value is at most -4.2.

Regarding A12C A29U A52G C85A C108G U139C, the “polymerase ribozyme fitness (log ratio)” value is at most -4.2.

In the case of A12G U56A A60U G65U A91U C96G A120U, the “polymerase ribozyme fitness (log ratio)” value was at most -4.2.

Turning to A12C A17C G42C G58A C79G G88C C99U U127G C132A U134G A150C, the “polymerase ribozyme fitness (log ratio)” value is at most -4.2.

With A12C U90G G92C, the “polymerase ribozyme fitness (log ratio)” value was at most -4.2.

Consider U13A A52C C87A G88U U135C, for which the “polymerase ribozyme fitness (log ratio)” value was at most -4.2.

On to A12U C54U U134A U145G, for which the “polymerase ribozyme fitness (log ratio)” value is -3.56.

Regarding A12C A52G, the “polymerase ribozyme fitness (log ratio)” value is -0.179.

Source of the values: the RNAGym collection of RNA variant scans (doi:10.1073/pnas.2313332121).
